Consider 27 molecules from the supplement of paper PMC10037445.

Where “and” joins values, the source holds several entries; their conditions need not be identical. Equal values may be shown once. Over roughly 2,900 compounds, “NF-kB SEAP reporter activity, fold change vs agonist alone” has its median near 0.99; the highest 2% begin near 2.6. The list shows a part of the results.

Test [1] relates to RAW-Dual. Description: NF-kB SEAP reporter activity, fold change vs agonist alone; higher = enhanced NF-kB activity. A digest of the protocol:
(§1)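 Cytotoxic wells were those whose IncuCyte confluency was below 70% of agonist controls in both mask sets. The cells were RAW-Dual macrophages at 50,000 cells/well in DMEM on 384-well plates, dosed with 50 nL of library stock by pin tool, stimulated with a PRR agonist 1 h later, and kept at 37 °C, 5% CO2 for 20 hours. IRF and NF-κB reporter activity, as fold change over agonist-alone wells, came from supernatant read by QuantiLuc luminescence and QuantiBlue absorbance, respectively.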

Test [2] relates to RAW-Dual. Briefly: NF-kB SEAP reporter activity, fold change vs agonist alone; cytotoxicity flag (confluency mask): not cytotoxic; higher = enhanced NF-kB activity. The method, boiled down: as §1
Test [3] concerns RAW-Dual. Briefly: NF-kB SEAP reporter activity, fold change vs agonist alone; cytotoxicity flag (confluency mask): cytotoxic (confluency <70% of control); higher = enhanced NF-kB activity. A digest of the protocol: as §1
Where [4] appears, read: library stock concentration (final ~1000-fold dilution): 10 mM, cytotoxicity flag (confluency mask): not cytotoxic, agonist: Imiquimod (TLR7) […].
The mark [5] stands for this setting: library stock concentration (final ~1000-fold dilution): 10 mM, cytotoxicity flag (confluency mask): not cytotoxic, agonist: MPLA (TLR4) […].
The mark [6] stands for this setting: agonist: ODN 1826 (TLR9) 0.5 ug/mL.
[7] abbreviates: agonist: Pam2CSK4 (TLR2/6) 0.1 ug/mL.
The mark [8] stands for this setting: agonist: Pam3CSK4 (TLR2/1) 0.1 ug/mL.

On to `CN(C)CC(c1ccc(O)cc1)C1(O)CCCCC1.O=C(O)CCC(=O)O` (stereo unspecified), for which the “NF-kB SEAP reporter activity” value came to 0.88 in test [1] (setting [4]) and 0.989 in test [1] (setting [5]).
On to `CN(C)CC(c1ccc(O)cc1)C1(O)CCCCC1.O=C(O)CCC(=O)O` (stereo unspecified) (library stock concentration (final ~1000-fold dilution): 10 mM), for which the “NF-kB SEAP reporter activity” value was 0.894 in test [2] (agonist: LPS (TLR4) 0.1 ug/mL), 0.874 in test [2] (setting [6]), 1.02 in test [2] (setting [7]) and 0.933 in test [2] (setting [8]).
`O=C(O)CSc1cc(NS(=O)(=O)c2ccc(Br)cc2)c2ccccc2c1O` (library stock concentration (final ~1000-fold dilution): 10 mM): the “NF-kB SEAP reporter activity” value in test [2] (agonist: LPS (TLR4) 0.1 ug/mL) amounted to 3.16; in test [2] (setting [6]), 1.31; in test [2] (setting [7]), 1.24; in test [2] (setting [8]), 2.31.
Turning to `O=C(O)CSc1cc(NS(=O)(=O)c2ccc(Br)cc2)c2ccccc2c1O`, the “NF-kB SEAP reporter activity” value was 1.12 in test [1] (setting [4]) and 2.21 in test [1] (setting [5]).
As for `Cc1cc(C(=O)O)n[nH]1` (library stock concentration (final ~1000-fold dilution): 10 mM), the “NF-kB SEAP reporter activity” value in test [2] (agonist: LPS (TLR4) 0.1 ug/mL) is 1.11; in test [2] (setting [6]) it was 0.99; in test [2] (setting [7]) it was 0.961; in test [2] (setting [8]) it was 0.917.
Turning to `Cc1cc(C(=O)O)n[nH]1`, the “NF-kB SEAP reporter activity” value in test [1] (setting [5]) was 1.
In the case of `C#CC1(O)CCC2C3CCC4=Cc5oncc5CC4(C)C3CCC21C` (stereo unspecified), the “NF-kB SEAP reporter activity” value in test [1] (setting [4]) stood at 0.903; in test [1] (setting [5]) it was 1.27.
Turning to `C#CC1(O)CCC2C3CCC4=Cc5oncc5CC4(C)C3CCC21C` (stereo unspecified) (library stock concentration (final ~1000-fold dilution): 10 mM), the “NF-kB SEAP reporter activity” value was found to be 0.969 in test [2] (agonist: LPS (TLR4) 0.1 ug/mL), 0.917 in test [2] (setting [6]), 0.616 in test [2] (setting [7]) and 0.595 in test [2] (setting [8]).
Turning to `NCCCCC(NC(CCc1ccccc1)C(=O)O)C(=O)N1CCCC1C(=O)O` (stereo unspecified), the “NF-kB SEAP reporter activity” value in test [1] (library stock concentration (final ~1000-fold dilution): 10 mM water, cytotoxicity flag (confluency mask): not cytotoxic, agonist: Imiquimod (TLR7) […]) stood at 0.939; in test [1] (library stock concentration (final ~1000-fold dilution): 10 mM water, cytotoxicity flag (confluency mask): not cytotoxic, agonist: MPLA (TLR4) […]), 1.06.
`NCCCCC(NC(CCc1ccccc1)C(=O)O)C(=O)N1CCCC1C(=O)O` (stereo unspecified) (library stock concentration (final ~1000-fold dilution): 10 mM water): the “NF-kB SEAP reporter activity” value came to 1.18 in test [2] (agonist: LPS (TLR4) 0.1 ug/mL), 1.14 in test [2] (setting [6]), 1.14 in test [2] (setting [7]) and 1.2 in test [2] (setting [8]).
As to `Nc1ccc(O)c(C(=O)O)c1` (library stock concentration (final ~1000-fold dilution): 10 mM), the “NF-kB SEAP reporter activity” value in test [2] (agonist: LPS (TLR4) 0.1 ug/mL) is 1.04 and 1.16; in test [2] (setting [6]) it was 0.938 and 1.12; in test [2] (setting [7]), 1.06 and 1.1; in test [2] (setting [8]) it was 1.08 and 0.987.
On to `COc1cc(N2CCN(C)CC2)ccc1Nc1nccc(-c2cn(C)c3cnccc23)n1` (library stock concentration (final ~1000-fold dilution): 10 mM), for which the “NF-kB SEAP reporter activity” value is 1.02 in test [2] (agonist: LPS (TLR4) 0.1 ug/mL), 0.192 in test [2] (setting [6]), 1.14 in test [2] (setting [7]) and 1.44 in test [2] (setting [8]).
In the case of `COc1cc(N2CCN(C)CC2)ccc1Nc1nccc(-c2cn(C)c3cnccc23)n1`, the figures for the “NF-kB SEAP reporter activity” value in test [1] (setting [4]) and in test [1] (setting [5]) were 0.285 and 1.58, respectively.
Regarding `COC12C(COC(N)=O)C3=C(C(=O)C(C)=C(N)C3=O)N1CC1NC12` (stereo unspecified) (library stock concentration (final ~1000-fold dilution): 10 mM), the “NF-kB SEAP reporter activity” value was 2.79 in test [2] (agonist: LPS (TLR4) 0.1 ug/mL), 2.71 in test [2] (setting [6]), 1.89 in test [2] (setting [7]) and 3.31 in test [2] (setting [8]).
As for `COC12C(COC(N)=O)C3=C(C(=O)C(C)=C(N)C3=O)N1CC1NC12` (stereo unspecified), the “NF-kB SEAP reporter activity” value in test [1] (setting [4]) turned out to be 1.82; in test [1] (setting [5]), 1.79.
In the case of `CN1CCN(CCCN2c3ccccc3Sc3ccc(C(F)(F)F)cc32)CC1.Cl.Cl` (library stock concentration (final ~1000-fold dilution): 10 mM), the “NF-kB SEAP reporter activity” value in test [3] (agonist: LPS (TLR4) 0.1 ug/mL) is 0.953; in test [3] (setting [6]), 0.573; in test [3] (setting [7]), 0.723; in test [3] (setting [8]) it was 0.949.
Take `CN1CCN(CCCN2c3ccccc3Sc3ccc(C(F)(F)F)cc32)CC1.Cl.Cl`: the “NF-kB SEAP reporter activity” value in test [1] (library stock concentration (final ~1000-fold dilution): 10 mM, cytotoxicity flag (confluency mask): cytotoxic (confluency <70% of control), agonist: Imiquimod (TLR7) […]) was 2.02; in test [1] (library stock concentration (final ~1000-fold dilution): 10 mM, cytotoxicity flag (confluency mask): cytotoxic (confluency <70% of control), agonist: MPLA (TLR4) […]), 1.44.
As to `CCOc1cn(-c2ccc(F)cc2C)nc1C(=O)Nc1ccc(Oc2ccnc3cc(OC)c(OC)cc23)c(F)c1` (library stock concentration (final ~1000-fold dilution): 10 mM), the “NF-kB SEAP reporter activity” value in test [2] (agonist: LPS (TLR4) 0.1 ug/mL) came out at 0.647; in test [2] (setting [6]), 0.777; in test [2] (setting [7]), 0.404; in test [2] (setting [8]), 0.285.
In the case of `CCOc1cn(-c2ccc(F)cc2C)nc1C(=O)Nc1ccc(Oc2ccnc3cc(OC)c(OC)cc23)c(F)c1`, the “NF-kB SEAP reporter activity” value in test [1] (setting [4]) stood at 0.965; in test [1] (setting [5]) it was 0.825.
Consider `CN1c2c(nc(N)[nH]c2=O)NC[C@@H]1CNc1ccc(C(=O)N[C@@H](CCC(=O)O)C(=O)O)cc1` (library stock concentration (final ~1000-fold dilution): 10 mM), for which the “NF-kB SEAP reporter activity” value turned out to be 1.18 in test [2] (agonist: LPS (TLR4) 0.1 ug/mL), 0.91 in test [2] (setting [6]), 0.69 in test [2] (setting [7]) and 0.862 in test [2] (setting [8]).
Take `CN1c2c(nc(N)[nH]c2=O)NC[C@@H]1CNc1ccc(C(=O)N[C@@H](CCC(=O)O)C(=O)O)cc1`: the results for the “NF-kB SEAP reporter activity” value in test [1] (setting [4]) and in test [1] (setting [5]) were 0.955 and 0.952, respectively.
Take `COCc1ccc(-c2ccc3ncc(C(N)=O)c(NC(C)C4CCOCC4)c3c2)cn1` (stereo unspecified) (library stock concentration (final ~1000-fold dilution): 10 mM): the “NF-kB SEAP reporter activity” value in test [2] (agonist: LPS (TLR4) 0.1 ug/mL) came out at 1.75; in test [2] (setting [6]), 1.19; in test [2] (setting [7]), 1.45; in test [2] (setting [8]), 2.13.
As to `COCc1ccc(-c2ccc3ncc(C(N)=O)c(NC(C)C4CCOCC4)c3c2)cn1` (stereo unspecified), the “NF-kB SEAP reporter activity” value in test [1] (setting [4]) is 0.993; in test [1] (setting [5]), 1.35.
With `O=c1cc(-c2ccc(O)cc2)oc2c(C3OC(CO)C(O)C(O)C3O)c(O)cc(O)c12` (stereo unspecified), the “NF-kB SEAP reporter activity” value is 0.887 in test [1] (setting [4]) and 0.994 in test [1] (setting [5]).
Take `O=c1cc(-c2ccc(O)cc2)oc2c(C3OC(CO)C(O)C(O)C3O)c(O)cc(O)c12` (stereo unspecified) (library stock concentration (final ~1000-fold dilution): 10 mM): the “NF-kB SEAP reporter activity” value is 0.978 in test [2] (agonist: LPS (TLR4) 0.1 ug/mL), 0.919 in test [2] (setting [6]), 1 in test [2] (setting [7]) and 1.31 in test [2] (setting [8]).
`CCCC(C)NC(=O)c1ccc(Cl)c(Cl)c1` (stereo unspecified): the entries for the “NF-kB SEAP reporter activity” value in test [1] (setting [4]) and in test [1] (setting [5]) were 1 and 1.21, respectively.
Regarding `CCCC(C)NC(=O)c1ccc(Cl)c(Cl)c1` (stereo unspecified) (library stock concentration (final ~1000-fold dilution): 10 mM), the “NF-kB SEAP reporter activity” value in test [2] (agonist: LPS (TLR4) 0.1 ug/mL) is 1.37; in test [2] (setting [6]), 0.982; in test [2] (setting [7]), 1.07; in test [2] (setting [8]), 1.21.
